Test [1] deals with T1, VEGF165 (UniProt P15692-4 27-191).
T1 construct: Bought antigen, used as the SPR analyte; also called VEGF-A
T1 sequence (looked up): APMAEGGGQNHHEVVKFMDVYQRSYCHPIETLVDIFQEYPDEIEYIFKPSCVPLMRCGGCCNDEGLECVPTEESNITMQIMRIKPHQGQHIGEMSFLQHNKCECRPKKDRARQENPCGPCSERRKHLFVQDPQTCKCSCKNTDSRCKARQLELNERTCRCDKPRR
Put plainly: SPR (Biacore T100, 25 C); binder captured on anti-human IgG CM5 chip, VEGF165 as analyte. On the technique in general: SPR reads the build-up and loss of mass on a sensor chip optically.

The target in test [2] is T2, GPC-3 protein (UniProt P51654 25-559, limits assumed).
T2 construct: Bought antigen, used as the SPR analyte; also called Glypican-3
The test is described as follows: SPR (Biacore T100, 25 C); binder captured on anti-human IgG CM5 chip, GPC-3 protein as analyte.

Test [3] addresses T3, recombinant human PD-L1 (human, UniProt Q9NZQ7 fragment).
T3 construct: Bought protein, coated on the ELISA plate; The construct is not described
T3 sequence (Q9NZQ7 19-238 limits assumed): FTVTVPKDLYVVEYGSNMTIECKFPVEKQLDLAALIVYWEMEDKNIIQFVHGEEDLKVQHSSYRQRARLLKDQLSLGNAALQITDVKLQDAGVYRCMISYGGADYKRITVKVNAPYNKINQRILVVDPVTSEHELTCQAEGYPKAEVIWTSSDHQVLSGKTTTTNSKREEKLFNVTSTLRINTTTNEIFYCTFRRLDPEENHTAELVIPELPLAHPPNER
Put plainly: ELISA; PD-L1 coated at 100 ng/ml, fusion protein titrated, anti-human IgG Fc-HRP. (In an ELISA, binding on a coated surface is turned into a signal by an enzyme label.)

For test [4], the target named is T4, recombinant human CTLA-4 (human, UniProt P16410 36-162).
T4 construct: Bought protein, coated on the ELISA plate; The construct is not described
T4 sequence (looked up): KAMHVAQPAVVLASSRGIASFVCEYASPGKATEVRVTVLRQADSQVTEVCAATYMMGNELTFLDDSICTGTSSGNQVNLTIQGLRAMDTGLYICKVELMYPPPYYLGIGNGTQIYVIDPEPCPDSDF
Put plainly: ELISA; CTLA-4 coated at 100 ng/ml, fusion protein titrated, anti-human IgG Fc-HRP.

The target of test [5] is T5, TGF-β1 (UniProt P01137 fragment, limits assumed).
T5 construct: Bought antigen, used as the SPR analyte; The printed catalogue number is doubtful
Put plainly: SPR (Biacore T100, 25 C); binder captured on anti-human IgG CM5 chip, TGF-β1 as analyte.

Chain of TGF-β1 (P01137 279-390 limits assumed): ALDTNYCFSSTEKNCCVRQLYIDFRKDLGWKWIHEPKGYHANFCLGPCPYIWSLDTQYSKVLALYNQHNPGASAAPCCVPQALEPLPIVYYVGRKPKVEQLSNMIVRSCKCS
Chain of GPC-3 protein (P51654 25-559 limits assumed): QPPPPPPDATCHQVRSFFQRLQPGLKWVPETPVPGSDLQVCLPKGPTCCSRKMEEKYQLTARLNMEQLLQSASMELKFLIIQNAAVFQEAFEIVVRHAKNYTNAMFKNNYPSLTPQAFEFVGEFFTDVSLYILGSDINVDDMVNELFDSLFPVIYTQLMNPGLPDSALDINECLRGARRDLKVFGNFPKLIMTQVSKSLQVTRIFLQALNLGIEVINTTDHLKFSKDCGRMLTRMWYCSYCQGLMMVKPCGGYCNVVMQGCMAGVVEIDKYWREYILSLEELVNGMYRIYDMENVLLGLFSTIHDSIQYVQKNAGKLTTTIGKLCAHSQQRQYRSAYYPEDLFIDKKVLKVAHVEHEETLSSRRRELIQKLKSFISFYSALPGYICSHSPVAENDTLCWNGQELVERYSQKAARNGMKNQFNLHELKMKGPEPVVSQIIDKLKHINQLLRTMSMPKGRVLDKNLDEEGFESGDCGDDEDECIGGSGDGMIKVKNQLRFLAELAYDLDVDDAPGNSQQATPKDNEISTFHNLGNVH

B1: conjugate BY24.22 (VEGFR-Fc-CD80, IgG4) (Fc fusion)
chain: ASDTGRPFVEMYSEIPEIIHMTEGRELVIPCRVTSPNITVTLKKFPLDTLIPDGKRIIWDSRKGFIISNATYKEIGLLTCEATVNGHLYKTNYLTHRQTNTIIDVVLSPSHGIELSVGEKLVLNCTARTELNVGIDFNWEYPSSKHQHKKLVNRDLKTQSGSEMKKFLSTLTIDGVTRSDQGLYTCAASSGLMTKKNSTFVRVHE[no letters for human IgG4 Fc with S228P (EU numbers)]GGGGSGGGGSGGGGSVIHVTKEVKEVATLSCGHNVSVEELAQTRIYWQKEKKMVLTMMSGDMNIWPEYKNRTIFDITNNLSIVILALRPSDEGTYECVVLKYEKDAFKREHLAEVTLSVKADFPTPSISDFEIPTSNIRRIICSTSGGFPEPHLSWLENGEELNAINTTVSQDPETELYAVSSKLDFNMTTNHSFMCLIKYGHLRVNQTFNWNTTKQEHFP
By Kd is commonly meant the free concentration of one partner at which half of the binding sites on the other are occupied at equilibrium, for simple one-to-one binding. The low end stands for a tighter complex, the high end for a looser complex. In general, koff refers to the rate constant with which the complex falls apart. A low value points to a long-lived complex. What is called kon is the rate constant with which the complex forms. Lower therefore signals slower complex formation. In test [1], B1 showed a Kd of 0.00857 nM, an off-rate (koff) of 2.99e-05 s⁻¹ and an association rate constant (kon) of 3.49e+06 M⁻¹ s⁻¹.

B2: conjugate BY20.3 (codrituzumab-CD80) (other)
heavy: QVQLVQSGAEVKKPGASVKVSCKASGYTFTDYEMHWVRQAPGQGLEWMGALDPKTGDTAYSQKFKGRVTLTADKSTSTAYMELSSLTSEDTAVYYCTRFYSYTYWGQGTLVTVSS[no letters for human IgG1 constant region]GGGGSGGGGSGGGGSVIHVTKEVKEVATLSCGHNVSVEELAQTRIYWQKEKKMVLTMMSGDMNIWPEYKNRTIFDITNNLSIVILALRPSDEGTYECVVLKYEKDAFKREHLAEVTLSVKADFPTPSISDFEIPTSNIRRIICSTSGGFPEPHLSWLENGEELNAINTTVSQDPETELYAVSSKLDFNMTTNHSFMCLIKYGHLRVNQTFNWNTTKQEHFP
light: DVVMTQSPLSLPVTPGEPASISCRSSQSLVHSNRNTYLHWYLQKPGQSPQLLIYKVSNRFSGVPDRFSGSGSGTDFTLKISRVEAEDVGVYYCSQNTHVPPTFGQGTKLEIKRTVAAPSVFIFPPSDEQLKSGTASVVCLLNNFYPREAKVQWKVDNALQSGNSQESVTEQDSKDSTYSLSSTLTLSKADYEKHKVYACEVTHQGLSSPVTKSFNRGEC
notes: IgG1 anti-GPC-3 antibody with the CD80 ECD on the heavy chain C-terminus; It uses the BY20.2 light chain
For B2, in test [2], the Kd turned out to be 1.49 nM, the koff turned out to be 5.54e-05 s⁻¹ and the association rate constant (kon) was 37200 M⁻¹ s⁻¹.

B3: fusion protein BY24.30 (Fc-hCD80, IgG4) (Fc fusion)
chain: [no letters for human IgG4 Fc with S228P (EU numbers)]GGGGSGGGGSGGGGSVIHVTKEVKEVATLSCGHNVSVEELAQTRIYWQKEKKMVLTMMSGDMNIWPEYKNRTIFDITNNLSIVILALRPSDEGTYECVVLKYEKDAFKREHLAEVTLSVKADFPTPSISDFEIPTSNIRRIICSTSGGFPEPHLSWLENGEELNAINTTVSQDPETELYAVSSKLDFNMTTNHSFMCLIKYGHLRVNQTFNWNTTKQEHFP
notes: CD80 ECD at the C-terminus of IgG4 Fc; also called Fc-hCD80 fusion protein; Fc-CD80
One may read the EC50 as the concentration at which the effect is half-maximal. As to B3, the values for the concentration giving a half-maximal response (EC50) in test [3] and in test [4] were 0.841 µg/mL and 0.92 µg/mL, respectively.

B4: conjugate BY41.6 (IgG-like TGF-βRII-CD80 fusion protein) (Fc fusion)
heavy: VTDNNGAVKFPQLCKFCDVRFSTCDNQKSCMSNCSITSICEKPQEVCVAVWRKNDENITLETVCHDPKLPYHDFILEDAASPKCIMKEKKKPGETFFMCSCSSDECNDNIIFSEEYNTSNPGGGGSSASTKGPSVFPLAPCSRSTSESTAALGCLVKDYFPEPVTVSWNSGALTSGVHTFPAVLQSSGLYSLSSVVTVPSSSLGTKTYTCNVDHKPSNTKVDKRV[no letters for human IgG4 Fc with S228P (EU numbers)]GGGGSGGGGSGGGGSVIHVTKEVKEVATLSCGHNVSVEELAQTRIYWQKEKKMVLTMMSGDMNIWPEYKNRTIFDITNNLSIVILALRPSDEGTYECVVLKYEKDAFKREHLAEVTLSVKADFPTPSISDFEIPTSNIRRIICSTSGGFPEPHLSWLENGEELNAINTTVSQDPETELYAVSSKLDFNMTTNHSFMCLIKYGHLRVNQTFNWNTTKQEHFP
light: VTDNNGAVKFPQLCKFCDVRFSTCDNQKSCMSNCSITSICEKPQEVCVAVWRKNDENITLETVCHDPKLPYHDFILEDAASPKCIMKEKKKPGETFFMCSCSSDECNDNIIFSEEYNTSNPGGGGSRTVAAPSVFIFPPSDEQLKSGTASVVCLLNNFYPREAKVQWKVDNALQSGNSQESVTEQDSKDSTYSLSSTLTLSKADYEKHKVYACEVTHQGLSSPVTKSFNRGEC
notes: Fab-like arms carry the TGFβRII ECD in place of VH and VL
On to B4, for which, in test [5], the affinity, expressed as Kd, was 7.43 nM; the koff is 0.000665 s⁻¹; the kon is 89500 M⁻¹ s⁻¹.

B5: fusion protein BY24.23 (hCD80-Fc, IgG4) (Fc fusion)
chain: VIHVTKEVKEVATLSCGHNVSVEELAQTRIYWQKEKKMVLTMMSGDMNIWPEYKNRTIFDITNNLSIVILALRPSDEGTYECVVLKYEKDAFKREHLAEVTLSVKADFPTPSISDFEIPTSNIRRIICSTSGGFPEPHLSWLENGEELNAINTTVSQDPETELYAVSSKLDFNMTTNHSFMCLIKYGHLRVNQTFNWNTTKQEHFPD[no letters for human IgG4 Fc with S228P (EU numbers)]
notes: Control with the CD80 ECD at the N-terminus of IgG4 Fc; also called hCD80-Fc fusion protein
On to B5, for which the EC50 in test [3] is 5.3 µg/mL; in test [4], 5.25 µg/mL.
